# According to the supplement of paper PMC8728848:
# Some of the results follow.
# B1: SSP1 (Sclerotinia sclerotiorum), XP_001584968 (protein)
# chain: MGSSHHHHHHSSGLVPRGSHMSLLTTELACTSAPDQVLHLFFQDGQNILEARSPDGGNVWTTQDTIIAKDGDYNGSSMTCYYVDKDANFDNQPSIHLLYMNKDKQLTEKVKRMKGDNPIWEDAKVPDEVRKGPEQYSKLTSGSFNQGTGWNPNGSQWAYFSASKDGKMGIVEIRRTPKDPWHTETILEEKWGDELPGTALACVIGNGKIRVFLQHHDYSIILYENQNNTWHDRGTFIPKDKVQATTPLACTMTKDGSVHLFYVSKSNKIIHCTDGKKEEELINFFPGSKLGATSVENKITLFFRNLNPVNEVGTLENENGSWKHGTTVIPA
# Experiments:
# Assay in all cases: glycan array binding signal (z-score within array); higher = stronger binding
# Details in all cases: glycan notation: IUPAC condensed, linker removed
# [1] = molecular target: GlcNAc(b1-3)Gal(b1-4)GlcNAc(b1-3)Gal(b1-4)GlcNAc(b1-3)Gal(b1-4)GlcNAc(b1-3)Gal(b1-4)GlcNAc(b1-2)[GlcNAc(b1-3)Gal(b1-4)GlcNAc(b1-3)Gal(b1-4)GlcNAc(b1-3)Gal(b1-4)GlcNAc(b1-3)Gal(b1-4)GlcNAc(b1-6)]Man(a1-6)[GlcNAc(b1-3)Gal(b1-4)GlcNAc(b1-3)Gal(b1-4)GlcNAc(b1-3)Gal(b1-4)GlcNAc(b1-3)Gal(b1-4)GlcNAc(b1-2)Man(a1-3)]Man(b1-4)GlcNAc(b1-4)[Fuc(a1-6)]GlcNAc
# Summary of the method: (§1)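 The binding signal is a Z-score computed within each array and averaged over linkers. Arrays of the same protein sequence at different concentrations or buffers were also averaged together. Data originate from 3228 arrays in the Consortium for Functional Glycomics database, kept only where the protein sequence was available.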
# [2] = molecular target: GlcNAc(b1-3)Gal(b1-4)GlcNAc(b1-3)Gal(b1-4)GlcNAc(b1-3)GalNAc
# Summary of the method: as §1
# [3] = molecular target: GlcNAc(b1-3)Gal(b1-4)GlcNAc(b1-3)GalNAc
# Summary of the method: as §1
# [4] = molecular target: GlcNAc(b1-3)Gal(b1-4)GlcNAc(b1-3)[GlcNAc(b1-3)Gal(b1-4)GlcNAc(b1-3)]GalNAc
# Summary of the method: as §1
# [5] = molecular target: GlcNAc(b1-3)Gal(b1-4)GlcNAc(b1-6)[Gal(b1-3)]GalNAc
# Summary of the method: as §1
# [6] = molecular target: GlcNAc(b1-3)Gal(b1-4)GlcNAc(b1-6)[GlcNAc(b1-3)Gal(b1-3)]GalNAc
# Summary of the method: as §1
# [7] = molecular target: GlcNAc(b1-3)Gal(b1-4)GlcNAc(b1-6)[GlcNAc(b1-3)]Gal(b1-4)GlcNAc
# Summary of the method: as §1
# GlcNAc(b1-3)GalNAc = molecular target: GlcNAc(b1-3)GalNAc
# Summary of the method: as §1
# GlcNAc(b1-3)Man = molecular target: GlcNAc(b1-3)Man
# Summary of the method: as §1
# [8] = molecular target: GlcNAc(b1-3)[GlcNAc(b1-4)][GlcNAc(b1-6)]GlcNAc
# Summary of the method: as §1
# [9] = molecular target: GlcNAc(b1-3)[GlcNAc(b1-6)]Gal(b1-4)GlcNAc
# Summary of the method: as §1
# [10] = molecular target: GlcNAc(b1-3)[GlcNAc(b1-6)]GalNAc
# Summary of the method: as §1
# [11] = molecular target: GlcNAc(b1-4)Gal(b1-4)GlcNAc
# Summary of the method: as §1
# GlcNAc(b1-4)GlcNAc = molecular target: GlcNAc(b1-4)GlcNAc
# Summary of the method: as §1
# [12] = molecular target: GlcNAc(b1-4)GlcNAc(b1-4)GlcNAc
# Summary of the method: as §1
# [13] = molecular target: GlcNAc(b1-4)GlcNAc(b1-4)GlcNAc(b1-4)GlcNAc(b1-4)GlcNAc
# Summary of the method: as §1
# [14] = molecular target: GlcNAc(b1-4)GlcNAc(b1-4)GlcNAc(b1-4)GlcNAc(b1-4)GlcNAc(b1-4)GlcNAc
# Summary of the method: as §1
# [15] = molecular target: GlcNAc(b1-4)[GlcNAc(b1-6)]GalNAc
# Summary of the method: as §1
# [16] = molecular target: GlcNAc(b1-6)Gal(b1-4)GlcNAc
# Summary of the method: as §1
# GlcNAc(b1-6)GalNAc = molecular target: GlcNAc(b1-6)GalNAc
# Summary of the method: as §1
# [17] = molecular target: GlcNAc6S(b1-3)Gal(b1-4)GlcNAc
# Summary of the method: as §1
# Kdn(a2-3)Gal(b1-3)GalNAc = molecular target: Kdn(a2-3)Gal(b1-3)GalNAc
# Summary of the method: as §1
# Kdn(a2-3)Gal(b1-3)GlcNAc = molecular target: Kdn(a2-3)Gal(b1-3)GlcNAc
# Summary of the method: as §1
# Kdn(a2-3)Gal(b1-4)Glc = molecular target: Kdn(a2-3)Gal(b1-4)Glc
# Summary of the method: as §1
# Kdn(a2-3)Gal(b1-4)GlcNAc = molecular target: Kdn(a2-3)Gal(b1-4)GlcNAc
# Summary of the method: as §1
# [18] = molecular target: Kdn(a2-3)Gal(b1-4)[Fuc(a1-3)]GlcNAc
# Summary of the method: as §1
# Kdn(a2-6)Gal(b1-4)GlcNAc = molecular target: Kdn(a2-6)Gal(b1-4)GlcNAc
# Summary of the method: as §1
# [19] = molecular target: Man(a1-2)Man(a1-2)Man(a1-3)Man
# Summary of the method: as §1
# [20] = molecular target: Man(a1-2)Man(a1-2)Man(a1-6)[Man(a1-3)]Man
# Summary of the method: as §1
# Man(a1-2)Man(a1-3)Man = molecular target: Man(a1-2)Man(a1-3)Man
# Summary of the method: as §1
# [21] = molecular target: Man(a1-2)Man(a1-3)[Man(a1-2)Man(a1-6)]Man
# Summary of the method: as §1
# [22] = molecular target: Man(a1-2)Man(a1-3)[Man(a1-2)Man(a1-6)]Man(a1-6)[Man(a1-2)Man(a1-2)Man(a1-3)]Man
# Summary of the method: as §1
# [23] = molecular target: Man(a1-2)Man(a1-3)[Man(a1-2)Man(a1-6)]Man(a1-6)[Man(a1-2)Man(a1-2)Man(a1-3)]Man(b1-4)GlcNAc(b1-4)GlcNAc
# Summary of the method: as §1
# [24] = molecular target: Man(a1-2)Man(a1-3)[Man(a1-6)]Man(a1-6)[Man(a1-2)Man(a1-3)]Man(b1-4)GlcNAc(b1-4)GlcNAc
# Summary of the method: as §1
# [25] = molecular target: Man(a1-2)Man(a1-6)[Man(a1-3)]Man(a1-6)[Man(a1-2)Man(a1-2)Man(a1-3)]Man
# Summary of the method: as §1
# [26] = molecular target: Man(a1-2)Man(a1-6)[Man(a1-3)]Man(a1-6)[Man(a1-2)Man(a1-2)Man(a1-3)]Man(b1-4)GlcNAc(b1-4)GlcNAc
# Summary of the method: as §1
# Man(a1-3)[Man(a1-6)]Man = molecular target: Man(a1-3)[Man(a1-6)]Man
# Summary of the method: as §1
# [27] = molecular target: Man(a1-3)[Man(a1-6)]Man(a1-6)[Man(a1-2)Man(a1-3)]Man(b1-4)GlcNAc(b1-4)GlcNAc
# Summary of the method: as §1
# [28] = molecular target: Man(a1-3)[Man(a1-6)]Man(a1-6)[Man(a1-3)]Man
# Summary of the method: as §1
# [29] = molecular target: Man(a1-3)[Man(a1-6)]Man(a1-6)[Man(a1-3)]Man(b1-4)GlcNAc(b1-4)GlcNAc
# Summary of the method: as §1
# [30] = molecular target: Man(a1-3)[Man(a1-6)]Man(b1-4)GlcNAc(b1-4)GlcNAc
# Summary of the method: as §1
# [31] = molecular target: Man(a1-3)[Man(a1-6)]Man(b1-4)GlcNAc(b1-4)[Fuc(a1-6)]GlcNAc
# Summary of the method: as §1
# Man(a1-6)Man = molecular target: Man(a1-6)Man
# Summary of the method: as §1
# Man(b1-4)GlcNAc = molecular target: Man(b1-4)GlcNAc
# Summary of the method: as §1
# MurNAc(b1-4)GlcNAc = molecular target: MurNAc(b1-4)GlcNAc
# Summary of the method: as §1
binder,measurement,setting,value
B1,glycan array binding signal (z-score),[1],0.002
same,glycan array binding signal (z-score),[2],0.044
same,glycan array binding signal (z-score),[3],-0.137
same,glycan array binding signal (z-score),[4],-0.162
same,glycan array binding signal (z-score),[5],-0.156
same,glycan array binding signal (z-score),[6],-0.034
same,glycan array binding signal (z-score),[7],-0.365
same,glycan array binding signal (z-score),GlcNAc(b1-3)GalNAc,-0.446
same,glycan array binding signal (z-score),GlcNAc(b1-3)Man,-0.252
same,glycan array binding signal (z-score),[8],0.269
same,glycan array binding signal (z-score),[9],0.078
same,glycan array binding signal (z-score),[10],-0.48
same,glycan array binding signal (z-score),[11],-0.694
same,glycan array binding signal (z-score),GlcNAc(b1-4)GlcNAc,0.012
same,glycan array binding signal (z-score),[12],-0.441
same,glycan array binding signal (z-score),[13],-0.531
same,glycan array binding signal (z-score),[14],-0.484
same,glycan array binding signal (z-score),[15],-0.1
same,glycan array binding signal (z-score),[16],0.09
same,glycan array binding signal (z-score),GlcNAc(b1-6)GalNAc,-0.231
same,glycan array binding signal (z-score),[17],-0.09
same,glycan array binding signal (z-score),Kdn(a2-3)Gal(b1-3)GalNAc,0.859
same,glycan array binding signal (z-score),Kdn(a2-3)Gal(b1-3)GlcNAc,-0.469
same,glycan array binding signal (z-score),Kdn(a2-3)Gal(b1-4)Glc,-0.148
same,glycan array binding signal (z-score),Kdn(a2-3)Gal(b1-4)GlcNAc,0.177
same,glycan array binding signal (z-score),[18],-0.409
same,glycan array binding signal (z-score),Kdn(a2-6)Gal(b1-4)GlcNAc,-0.024
same,glycan array binding signal (z-score),[19],-0.625
same,glycan array binding signal (z-score),[20],-0.199
same,glycan array binding signal (z-score),Man(a1-2)Man(a1-3)Man,0.114
same,glycan array binding signal (z-score),[21],-0.556
same,glycan array binding signal (z-score),[22],-0.323
same,glycan array binding signal (z-score),[23],0.327
same,glycan array binding signal (z-score),[24],-0.017
same,glycan array binding signal (z-score),[25],-0.279
same,glycan array binding signal (z-score),[26],-0.467
same,glycan array binding signal (z-score),Man(a1-3)[Man(a1-6)]Man,-0.264
same,glycan array binding signal (z-score),[27],-0.598
same,glycan array binding signal (z-score),[28],2.15
same,glycan array binding signal (z-score),[29],0.706
same,glycan array binding signal (z-score),[30],-0.468
same,glycan array binding signal (z-score),[31],-0.158
same,glycan array binding signal (z-score),Man(a1-6)Man,0.377
same,glycan array binding signal (z-score),Man(b1-4)GlcNAc,-0.027
same,glycan array binding signal (z-score),MurNAc(b1-4)GlcNAc,-0.452
